# Data reported in PubChem BioAssay AID624296 (National Center for Advancing Translational Sciences (NCATS), 2012).
# In all, about 350,000 compounds went through this assay and about 9,900 (2.8%) were called active. Inconclusive results, whose numbers are uncertain, are shown with a selection of clear calls. The call rests on the fitted dose curve; in most records, active means well fitted activation curve with a large enough effect; inconclusive means small, poorly fitted or top-dose-only effect; inactive means no such curve, though single readings can be large or run the other way. No potency is given beside an inconclusive call; the fits are too rough.
# Test: A quantitative high throughput screen for small molecules that induce DNA re-replication in MCF 10a normal breast cells. Further: nearly all actives have a fitted effect of over 50% in size. On activity, positive = re-replication: % of control where 0% means no effect.
# Conditions: MCF 10A DNA re-replication, Hoechst nuclear intensity, 48 h; activity, positive = re-replication: at 46.1 µM (top of the series)
# Potency means the concentration at half of the fitted maximal effect; tags describe the fitted curve by direction and shape.
Compound,Potency,"activity, positive = re-replication"
O=C(CCSc1ccc(Cl)cc1)N1CCN(S(=O)(=O)c2ccccc2)CC1,"inconclusive [activator, partial curve, poor fit]",–
CCOC(=O)N1CCN(C(=O)CSC2=NS(=O)(=O)c3cc(F)ccc3N2)CC1,"inconclusive [activator, partial curve]",–
CCNc1nc(NC(C)C)nc(Oc2ccc(OCCOc3ccccc3)nn2)n1,"inconclusive [activator, full curve, poor fit]",–
NNC(=O)CN1C(c2ccccc2Br)=Nc2ccc(Br)cc2C1c1ccccc1 (configuration not stated),–,inactive: 5.85%
CN1CCCN(Cc2nc(-c3ccc(Cl)cc3)no2)CC1,"inconclusive [activator, full curve]",–
Nc1c(C(=O)Nc2ccccc2F)sc2nc(-c3ccco3)ccc12,–,inactive: 29.4%
O=[N+]([O-])c1ccc(O)c(/C=N/Nc2ccc(Cl)nn2)c1,active: 0.731 µM,–
COC(=O)CCNC(=O)CCc1ccc(S(=O)(=O)N2CCCCCC2)cc1,"inconclusive [activator, full curve, poor fit]",–
CCC(=O)Nc1ccc(NC(=S)NC(=O)/C=C/c2ccccc2)cc1,–,inactive: 11.4%
Cc1ccsc1C1Nc2ccccc2C(=O)N1O (configuration not stated),–,inactive: 0.803%
CCCNC(=O)c1ccccc1NC(=O)c1ccccc1N(C)S(=O)(=O)c1ccc(C)cc1,"inconclusive [activator, single point]",–
COC(=O)Cn1c(=NC(=O)c2nc3ccccc3s2)sc2cc(S(N)(=O)=O)ccc21,"inconclusive [activator, single point]",–
COc1ccc(Cn2cccc(NC(=O)Nc3cccc(OC)c3)c2=O)cc1,"inconclusive [activator, single point]",–
NN=C1c2ccccc2C(=O)C1C(=O)C(c1ccccc1)c1ccccc1 (configuration not stated),active: 11.6 µM,–
COC(=O)CSc1nc2[nH]ncc2c(=O)[nH]1,–,inactive: -9.36%
Cc1nn(-c2ccccc2)c2sc(C(=O)N(Cc3ccco3)C(C)C(=O)NC(C)(C)C)cc12 (configuration not stated),"inconclusive [activator, single point]",–
Cc1ccc(Sc2cnn(-c3ccccc3)c(=O)c2Cl)cc1,"inconclusive [activator, single point]",–
COCCNC(=O)C(c1ccc(Cl)cc1)N(CCOC)C(=O)CCC(=O)Nc1ccccn1 (configuration not stated),–,inactive: -10%
Cn1cnc([N+](=O)[O-])c1Cl,"inconclusive [activator, single point]",–
Cc1ccc(CC(=O)CCc2ccccc2)cc1,–,inactive: -2.71%
COc1ccc(OC)c(C2C(C(=O)Nc3nc4ccccc4s3)=C(C)NC3=C2C(=O)CCC3)c1 (configuration not stated),"inconclusive [activator, full curve, poor fit]",–
CC(C)NC1CS(=O)(=O)CC1O (configuration not stated),"inconclusive [activator, single point]",–
Cc1ccc(NCC(=O)N/N=C/c2cc3ccccc3nc2Cl)cc1,"inconclusive [activator, full curve]",–
Cc1ccc(S(=O)(=O)N2CCC[C@H]2C(=O)NC2CCCCC2)cc1,–,inactive: 11.4%

Compound,Potency,"activity, positive = re-replication"
Cc1ccc(Cl)cc1NC(=S)N(Cc1cccs1)C1CCCC1,–,inactive: -0.129%
CCOC(=O)c1cn(CC)c2cc(F)c(F)cc2c1=O,"inconclusive [activator, single point]",–
CSCC[C@H](NC(=O)OC(C)(C)C)C(=O)N/N=C/c1cccc2cccnc12,–,inactive: 11.9%
CCOc1ccccc1NC(=O)CSc1nnnn1-c1ccc(C(=O)OC)cc1,–,inactive: 12.5%
O=C(Nc1ccc(F)cc1)C1CCN(C(=O)c2ccc([N+](=O)[O-])cc2)CC1,–,inactive: 11.3%
Cc1ccc(CNC(=O)c2cc(C)nn2-c2ccccc2)cc1,–,inactive: -14.2%
CC(=NNC(=S)Nc1cccc(Cl)c1)c1ccccn1,"inconclusive [activator, partial curve]",–
N#C/C(=C(/O)COC(=O)COc1ccc(Cl)cc1)c1nc2ccccc2[nH]1,"inconclusive [activator, single point]",–
CCOC(=O)C1CCCN(C(=O)COc2ccc(S(=O)(=O)N3CCOCC3)cc2)C1 (configuration not stated),–,inactive: -1.71%
CCOC(=O)C1CCN(S(=O)(=O)c2nc3nc(C)cc(C)n3n2)CC1,"inconclusive [activator, single point]",–
CC(=O)Nc1nc(-c2ccc3c(c2)CCN3C(=O)C2CC2)c(C)s1,–,inactive: 24.3%
COc1cc(OC)cc(-c2c(-c3ccc(F)cc3)c3cc(Br)ccc3n2C)c1,"inconclusive [activator, single point]",–
CCC(=C(c1ccc(OC)cc1)c1ccc(OC)cc1)c1cn(CC(O)CN2CCN(C)CC2)c2ccccc12 (configuration not stated),"inconclusive [activator, single point]",–
O=S1(=O)c2cccc3cccc(c23)N1Cc1ccc(-c2nnco2)cc1,"inconclusive [activator, single point]",–
CCNC(=S)N/N=C/c1cccc(OCc2c(F)cccc2Cl)c1,"inconclusive [activator, partial curve, poor fit]",–
CCOC(=O)C1=C(O)/C(=C/N(C)C)N=C1C,"inconclusive [activator, single point]",–
CC(C)C(=O)N1CCN(c2c(Cl)cccc2[N+](=O)[O-])CC1,–,inactive: 5.1%
Cc1ccc(C2=NN(C(=O)CSc3nccn3C)C(c3ccco3)C2)cc1 (configuration not stated),"inconclusive [activator, single point]",–
O=C(Nc1cccc(-c2nc3cccnc3s2)c1)c1ccco1,"inconclusive [activator, single point]",–
COCC(=O)N(C)CC1CCCN(CCc2ccccc2OC)C1 (configuration not stated),"inconclusive [activator, single point]",–
O=[N+]([O-])c1ccc2[nH]c(=S)sc2c1,"inconclusive [activator, partial curve, poor fit]",–
NCCOc1ccc(C23CC4CC(CC(C4)C2)C3)cc1,active: 4.11 µM,–
Cc1ccccc1NC(=O)c1cnn(-c2ccccc2)c1C,"inconclusive [activator, single point]",–
